In patent publication US5550212A, “Analogues of hGH-RH(1-29)NH2 having antagonistic activity” (The Administrators of the Tulane Educational Fund, priority 1993, dated 1996):
Part of at least one peptide drawing is inferred or uncertain, most often the ends. For some assays here: At least one compound was matched to its structure with a doubt left. Non-standard residues stand in square brackets, D forms with d. Residues, ends and D or L forms follow the SMILES beside them. *: point of attachment. Acetyl(1-naphthyl) = O=C(Cc1cccc2ccccc12)*; Phe(4-Cl) = N[C@@H](Cc1ccc(Cl)cc1)C(=O)O; Agmatine = N=C(N)NCCCCN*; Isobutyryl = CC(C)C(=O)*; Nle = CCCC[C@H](N)C(=O)O; Abu = CC[C@H](N)C(=O)O; X1 = O=C(CCBr)*; X2 = O=C(CI)*

Legend:
[1] = tested on: hGH-RH(1-29)NH2 induced GH release; assay: Superfused rat pituitary system: inhibition of hGH-RH(1-29)NH2 induced GH release; assay type: cell-based; conditions: for Inhibition of GH release (%) 0 min: 0 min response; for Inhibition of GH release (%) 30 min: 30 min response; for Inhibition of GH release (%) 60 min: 60 min response; for Inhibition of GH release (%) 120 min: 120 min response
[2] = molecular target: T1, rat pituitary GH-RH receptors (Rattus norvegicus, UniProt Q02644); assay: GH-RH binding assay, competitive binding on rat anterior pituitary membrane homogenates; conditions: for R.A. (relative affinity compared to the Standard antagonist): ratio of Ki values, Standard = 1
T1 construct: from tissue; host or cells: rat anterior pituitary (male Sprague-Dawley), crude membranes
T1 sequence (Q02644 23-464): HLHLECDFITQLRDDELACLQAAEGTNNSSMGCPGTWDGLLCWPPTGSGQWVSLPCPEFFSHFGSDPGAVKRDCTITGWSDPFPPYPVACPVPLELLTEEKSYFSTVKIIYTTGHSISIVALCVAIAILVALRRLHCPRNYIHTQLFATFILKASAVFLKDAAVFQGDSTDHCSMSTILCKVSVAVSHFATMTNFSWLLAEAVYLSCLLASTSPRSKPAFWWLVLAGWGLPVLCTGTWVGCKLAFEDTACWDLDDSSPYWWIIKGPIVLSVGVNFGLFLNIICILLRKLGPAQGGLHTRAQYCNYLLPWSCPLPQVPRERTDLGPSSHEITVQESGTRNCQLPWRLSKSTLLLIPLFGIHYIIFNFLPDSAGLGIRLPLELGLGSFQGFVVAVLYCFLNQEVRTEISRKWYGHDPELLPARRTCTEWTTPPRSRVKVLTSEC
Experimental: GH-RH Binding Assay. A sensitive radioreceptor binding assay was developed to determine the binding characteristics of the antagonists of GH-RH (G. Halmos, A. V. Schally et al., Receptor 3, 87-97, 1993), hereby incorporated by reference. The assay is based on binding of labelled [His^1,Nle^27 ]hGH-RH(1-32)NH2 to rat anterior pituitary membrane homogenates. Iodinated derivatives of [His^1,Nle^27 ]hGH-RH(1-32)NH2 are prepared by the chloramine-T method (F. C. Greenwood et al., Biochemistry 89:114-123, 1963), hereby incorporated by reference. Pituitaries from male Sprague-Dawley rats (250-300 g) are used to prepare crude membranes. For saturation binding analyses, membrane homogenates are incubated with at least 6 concentrations of [His^1,^25 I-Tyr^10,Nle^27 ]hGH-RH(1-32)NH2, ranging from 0.005 to 0.35 nM in the presence or absence of excess unlabelled peptide (1 μM). The pellet is counted for radioactivity in a y-counter. The affinities of the antagonist peptides tested to rat pituitary GH-RH receptors are determined in competitive binding experiments. The final binding affinities are estimated by Ki (dissociation constant of the inhibitor-receptor complex) and are determined by the Ligand PC computer program of Munson and Rodbard as modified by McPherson. Relative affinities compared to [Ac-Tyr^1,D-Arg^2 ]hGH-RH(1-29)NH2, the Standard antagonist, are calculated as the ratio of Ki of the tested GH-RH antagonist to the Ki of the Standard antagonist.

Structure (SMILES) | R.A. (relative affinity compared to the Standard antagonist) [2] | Inhibition of GH release (%) 0 min ([1]; dose 30 nM) | Inhibition of GH release (%) 30 min ([1]; dose 30 nM) | Inhibition of GH release (%) 60 min ([1]; dose 30 nM) | Inhibition of GH release (%) 120 min ([1]; dose 30 nM) | Inhibition of GH release (%) 0 min ([1]; dose 10 nM) | Inhibition of GH release (%) 30 min ([1]; dose 10 nM) | Inhibition of GH release (%) 60 min ([1]; dose 10 nM) | Inhibition of GH release (%) 0 min ([1]; dose 100 nM) | Inhibition of GH release (%) 30 min ([1]; dose 100 nM) | Inhibition of GH release (%) 60 min ([1]; dose 100 nM) | Ki ([2]; competition with labelled [His1,Nle27]hGH-RH(1-32)NH2) | Inhibition of GH release (%) 0 min ([1]; dose 3 nM) | Inhibition of GH release (%) 60 min ([1]; dose 3 nM)
CCCC[C@H](NC(=O)[C@@H](NC(=O)[C@H](CC(=O)O)NC(=O)[C@H](CCC(N)=O)NC(=O)[C@H](CC(C)C)NC(=O)[C@H](CC(C)C)NC(=O)[C@H](CCCCN)NC(=O)[C@H](CCCNC(=N)N)NC(=O)[C@H](C)NC(=O)[C@H](CO)NC(=O)[C@H](CC(C)C)NC(=O)[C@H](CCC(N)=O)NC(=O)[C@H](CC)NC(=O)[C@H](CC(C)C)NC(=O)[C@@H](NC(=O)[C@H](CCCCN)NC(=O)[C@H](CCCNC(=N)N)NC(=O)[C@H](Cc1ccc(O)cc1)NC(=O)[C@H](CO)NC(=O)[C@H](CC(N)=O)NC(=O)[C@@H](NC(=O)[C@H](Cc1ccc(Cl)cc1)NC(=O)[C@@H](NC(=O)[C@H](C)NC(=O)[C@H](CC(=O)O)NC(=O)[C@@H](CCCNC(=N)N)NC(=O)[C@H](CCC(=O)O)NC(=O)C(C)C)[C@@H](C)CC)[C@@H](C)O)C(C)C)[C@@H](C)CC)C(=O)N[C@@H](CO)C(=O)N[C@@H](CCCNC(=N)N)C(N)=O [Peptide 7] (Isobutyryl-E[dR]DAI[Phe(4-Cl)]TNSYRKVL[Abu]QLSARKLLQDI[Nle]SR-NH2) | 2.39 |  |  |  |  | 14.2% | 20.8% | 51.6% | 73.9% | 25% | 45% |  |  | 
CCCC[C@H](NC(=O)[C@@H](NC(=O)[C@H](CC(=O)O)NC(=O)[C@H](CCC(N)=O)NC(=O)[C@H](CC(C)C)NC(=O)[C@H](CC(C)C)NC(=O)[C@H](CCCCN)NC(=O)[C@H](CCCNC(=N)N)NC(=O)[C@H](C)NC(=O)[C@H](CO)NC(=O)[C@H](CC(C)C)NC(=O)[C@H](CCC(N)=O)NC(=O)[C@H](CC)NC(=O)[C@H](CC(C)C)NC(=O)[C@@H](NC(=O)[C@H](CCCCN)NC(=O)[C@H](CCCNC(=N)N)NC(=O)[C@H](Cc1ccc(O)cc1)NC(=O)[C@H](CO)NC(=O)[C@H](CC(N)=O)NC(=O)[C@@H](NC(=O)[C@H](Cc1ccc(Cl)cc1)NC(=O)[C@@H](NC(=O)[C@H](C)NC(=O)[C@H](CC(=O)O)NC(=O)[C@@H](CCCNC(=N)N)NC(=O)[C@H](Cc1ccc(O)cc1)NC(=O)CCBr)[C@@H](C)CC)[C@@H](C)O)C(C)C)[C@@H](C)CC)C(=O)N[C@@H](CO)C(=O)NCCCCNC(=N)N [Peptide 20] (X1-Y[dR]DAI[Phe(4-Cl)]TNSYRKVL[Abu]QLSARKLLQDI[Nle]S-Agmatine; N-terminus assumed) |  |  |  |  |  |  |  |  |  |  |  | 0.99 ± 0.12 nM |  | 
CCCC[C@H](NC(=O)[C@@H](NC(=O)[C@H](CC(=O)O)NC(=O)[C@H](CCC(N)=O)NC(=O)[C@H](CC(C)C)NC(=O)[C@H](CC(C)C)NC(=O)[C@H](CCCCN)NC(=O)[C@H](CCCNC(=N)N)NC(=O)[C@H](C)NC(=O)[C@H](CO)NC(=O)[C@H](CC(C)C)NC(=O)[C@H](CCC(N)=O)NC(=O)[C@H](CC)NC(=O)[C@H](CC(C)C)NC(=O)[C@@H](NC(=O)[C@H](CCCCN)NC(=O)[C@H](CCCNC(=N)N)NC(=O)[C@H](Cc1ccc(O)cc1)NC(=O)[C@H](CO)NC(=O)[C@H](CC(N)=O)NC(=O)[C@@H](NC(=O)[C@H](Cc1ccc(Cl)cc1)NC(=O)[C@@H](NC(=O)[C@H](C)NC(=O)[C@H](CC(=O)O)NC(=O)[C@@H](CCCNC(=N)N)NC(=O)[C@@H](N)Cc1ccc(O)cc1)[C@@H](C)CC)[C@@H](C)O)C(C)C)[C@@H](C)CC)C(=O)N[C@@H](CO)C(=O)NCCCCNC(=N)N [Peptide 37] (H-Y[dR]DAI[Phe(4-Cl)]TNSYRKVL[Abu]QLSARKLLQDI[Nle]S-Agmatine) |  | 97.5% | 67.3% | 58.4% | 62.1% |  |  |  |  |  |  |  | 78.5% | 38.8%

Now from value to compound, other results behind:

R.A. (relative affinity compared to the Standard antagonist) [2] | Structure (SMILES) | Inhibition of GH release (%) 0 min ([1]; dose 30 nM) | Inhibition of GH release (%) 30 min ([1]; dose 30 nM) | Inhibition of GH release (%) 60 min ([1]; dose 30 nM) | Inhibition of GH release (%) 120 min ([1]; dose 30 nM) | Inhibition of GH release (%) 0 min ([1]; dose 10 nM) | Inhibition of GH release (%) 30 min ([1]; dose 10 nM) | Inhibition of GH release (%) 60 min ([1]; dose 10 nM) | Inhibition of GH release (%) 0 min ([1]; dose 100 nM) | Inhibition of GH release (%) 30 min ([1]; dose 100 nM) | Inhibition of GH release (%) 60 min ([1]; dose 100 nM) | Ki ([2]; competition with labelled [His1,Nle27]hGH-RH(1-32)NH2) | Inhibition of GH release (%) 0 min ([1]; dose 3 nM) | Inhibition of GH release (%) 60 min ([1]; dose 3 nM)
67.08 | CCCC[C@H](NC(=O)[C@@H](NC(=O)[C@H](CC(=O)O)NC(=O)[C@H](CCC(N)=O)NC(=O)[C@H](CC(C)C)NC(=O)[C@H](CC(C)C)NC(=O)[C@H](CCCCN)NC(=O)[C@H](CCCNC(=N)N)NC(=O)[C@H](C)NC(=O)[C@H](CO)NC(=O)[C@H](CC(C)C)NC(=O)[C@H](CCC(N)=O)NC(=O)[C@H](CC)NC(=O)[C@H](CC(C)C)NC(=O)[C@@H](NC(=O)[C@H](CCCCN)NC(=O)[C@H](CCCNC(=N)N)NC(=O)[C@H](Cc1ccc(O)cc1)NC(=O)[C@H](CO)NC(=O)[C@H](CC(N)=O)NC(=O)[C@@H](NC(=O)[C@H](Cc1ccc(Cl)cc1)NC(=O)[C@@H](NC(=O)[C@H](C)NC(=O)[C@H](CC(=O)O)NC(=O)[C@@H](CCCNC(=N)N)NC(=O)[C@H](Cc1c[nH]cn1)NC(=O)Cc1cccc2ccccc12)[C@@H](C)CC)[C@@H](C)O)C(C)C)[C@@H](C)CC)C(=O)N[C@@H](CO)C(=O)N[C@@H](CCCNC(=N)N)C(N)=O [Peptide 5, [Nac^0 -His^1,D-Arg^2,Phe(pCl)^6,Abu^15, Nle^27]hGH-RH(1-29)NH2] ({Acetyl(1-naphthyl)}-H[dR]DAI[Phe(4-Cl)]TNSYRKVL[Abu]QLSARKLLQDI[Nle]SR-NH2) | 92.6% | 86.4% | 81.4% | 64.5% |  |  |  |  |  |  |  |  | 
3.54 | CCCC[C@H](NC(=O)[C@@H](NC(=O)[C@H](CC(=O)O)NC(=O)[C@H](CCC(N)=O)NC(=O)[C@H](CC(C)C)NC(=O)[C@H](CC(C)C)NC(=O)[C@H](CCCCN)NC(=O)[C@H](CCCNC(=N)N)NC(=O)[C@H](C)NC(=O)[C@H](CO)NC(=O)[C@H](CC(C)C)NC(=O)[C@H](CCC(N)=O)NC(=O)[C@H](CC)NC(=O)[C@H](CC(C)C)NC(=O)[C@@H](NC(=O)[C@H](CCCCN)NC(=O)[C@H](CCCNC(=N)N)NC(=O)[C@H](Cc1ccc(O)cc1)NC(=O)[C@H](CO)NC(=O)[C@H](CC(N)=O)NC(=O)[C@@H](NC(=O)[C@H](Cc1ccc(Cl)cc1)NC(=O)[C@@H](NC(=O)[C@H](C)NC(=O)[C@H](CC(=O)O)NC(=O)[C@@H](CCCNC(=N)N)NC(=O)[C@H](CCC(=O)O)NC(=O)CI)[C@@H](C)CC)[C@@H](C)O)C(C)C)[C@@H](C)CC)C(=O)N[C@@H](CO)C(=O)N[C@@H](CCCNC(=N)N)C(N)=O [Peptide 8] (X2-E[dR]DAI[Phe(4-Cl)]TNSYRKVL[Abu]QLSARKLLQDI[Nle]SR-NH2) | 59.1% | 0% | 7.3% | 14% |  |  |  |  |  |  |  |  | 
3.72 | CCCC[C@H](NC(=O)[C@@H](NC(=O)[C@H](CC(=O)O)NC(=O)[C@H](CCC(N)=O)NC(=O)[C@H](CC(C)C)NC(=O)[C@H](CC(C)C)NC(=O)[C@H](CCCCN)NC(=O)[C@H](CCCNC(=N)N)NC(=O)[C@H](C)NC(=O)[C@H](CO)NC(=O)[C@H](CC(C)C)NC(=O)[C@H](CCC(N)=O)NC(=O)[C@H](CC)NC(=O)[C@H](CC(C)C)NC(=O)[C@@H](NC(=O)[C@H](CCCCN)NC(=O)[C@H](CCCNC(=N)N)NC(=O)[C@H](Cc1ccc(O)cc1)NC(=O)[C@H](CO)NC(=O)[C@H](CC(N)=O)NC(=O)[C@@H](NC(=O)[C@H](Cc1ccc(Cl)cc1)NC(=O)[C@@H](NC(=O)[C@H](C)NC(=O)[C@H](CC(=O)O)NC(=O)[C@@H](CCCNC(=N)N)NC(=O)[C@H](CCC(=O)O)NC(=O)Cc1cccc2ccccc12)[C@@H](C)CC)[C@@H](C)O)C(C)C)[C@@H](C)CC)C(=O)N[C@@H](CO)C(=O)N[C@@H](CCCNC(=N)N)C(N)=O [Peptide 9] ({Acetyl(1-naphthyl)}-E[dR]DAI[Phe(4-Cl)]TNSYRKVL[Abu]QLSARKLLQDI[Nle]SR-NH2) | 88.4% | 46.5% | 43.9% | 32.1% |  |  |  | 90.7% | 79.5% | 76% |  |  | 
